{"source": "PubChem BioAssay AID1347428", "about": "(National Center for Advancing Translational Sciences (NCATS), 2020)", "note": "Screen size: about 91,000 compounds; about 290 (0.32%) were called active. Inconclusive means that the source gave no clear call. Such entries were picked first, then a sample of the others. Calls come from the whole dose curve; as a rule, active = well fitted inhibition curve with a large enough effect; inconclusive = small, poorly fitted or top-dose-only effect; inactive = no such curve, though single readings can be large or run the other way. Where the call is inconclusive, the potency comes from a doubtful curve fit. % is set by controls: 0 for no effect and ±100 for the full control effect; potency is the fitted concentration of half-maximal effect; tags give direction and shape of the fitted curve."}
{"target": "Single-stranded DNA cytosine deaminase (Homo sapiens) (UniProt Q9GZX7)", "sequence (Q9GZX7 whole entry, looked up)": "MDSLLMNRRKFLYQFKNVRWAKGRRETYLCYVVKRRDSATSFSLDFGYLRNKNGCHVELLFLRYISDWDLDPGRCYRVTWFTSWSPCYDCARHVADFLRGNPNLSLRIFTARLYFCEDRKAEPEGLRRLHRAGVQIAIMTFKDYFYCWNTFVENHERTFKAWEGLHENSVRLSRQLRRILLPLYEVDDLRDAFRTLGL", "test": "Primary qHTS assay for inhibitors of Activation Induced Cytidine Deaminase (AID): AID signal; note: nearly all actives have a fitted effect of over 25% in size", "details": "AID deamination FRET fluorescence, UDG-coupled, 4 h; activity change, negative = inhibition: at 115 µM (top of the series)", "from_the_text": "Assay Provider (PI) Patricia Gearhart Ph.D.\nNational Institute on Aging\nNational Institute of Health (NIH), Bethesda, MD\nAssay Provider (PI) Rahul Kohli Ph.D.\nPerelman School of Medicine\nUniversity of Pennsylvania, Philadelphia, PA\nActivation-Induced Deaminase (AID) is a cytosine deaminase which converts cytosine into uracil within stretches of ssDNA. The presence of uracil in DNA initiates a cascade of mutagenic DNA repair to introduce point mutations and DNA double strand breaks. Specific targeting of AID to the immunoglobulin heavy chain loci (Igh) promotes mutagenesis in the antibody variable region for somatic hypermutation (SHM) or switch regions leading to class switch recombination (CSR). However, AID also plays a role in accumulating unnecessary mutations across the genome. Mis-targeting of AID results in the initiation of tumor development and leads to greater drug resistance among cancer cells when continually expressed. To identify an AID inhibitor, a small molecule library will be screened in collaboration with NCATS core facility at NIH. To confirm biological function, inhibitors will be examined in an in vitro murine B-cell activation assay and subsequent secondary validation screens. Top molecules will be further screened to identify inhibitory efficacy against a wild type primary splenocytes assay. Using these approaches, we hope to identify a small molecule with great efficacy and low toxicity for use as a molecular probe to further characterize AID's intricacies, or even as a therapeutic.\nA FRET based analysis of cytosine deamination, was developed to identify potential inhibitors of AID catalytic activity. This screen has two signal output, Read 1 evaluates the AID inhibition response. The second readout (Read 2) evaluates UDG response and is uses as a counterscreen to exclude false positive inhibitors. Inhibition in AID and inactivity in the UDG signal is the desired outcome for this assay.\nSEQUENCE No. (e.g., 1, 2, 3, etc.); […] (e.g., Cells, Incubation, Reagent, etc.); VALUE; DESCRIPTION\n1a; Reagent; 3 uL; [4/3x] 1 uM AID/2.67 U/mL UDG\n1b; Reagent; 3 uL; 2 U/mL UDG\n1c; Reagent; 3 uL; 1 uM AID\n2a; Compound; 46 nL; Follow-up plates (0.64 uM - 10 mM)\n2b; Control; 46 nL; ATA ([…] - 10 mM)\n3; Time; 10 min; incubation at room temperature\n5; Time; 4 hr; incubation at room temperature\n6; Reagent; 4 uL; [2x] 250 mM NaOH\n7; Time; 15 sec; centrifuge at 1000 rpm\n8; Time; 30 min; incubation at room temperature\n9a; Detection; fluorescence (Read 1: AID); EnVision (PerkinElmer) plate reader, 540 excitation and 590 emission filters\n9b; Detection; fluorescence (Read 2: UDG); EnVision (PerkinElmer) plate reader, 560 excitation and 665 emission filters\nNOTES (numbers refer to sequence above)\n1a; Reagents were dispensed in a medium-binding black solid-bottom Greiner plates (789176F) using a BioRptr liquid dispenser. Dispense 3 uL of [4/3x] 1 uM AID (provided by Kohli lab) and [4/3x] 2 U/mL UDG (NEB M0280L) into columns 1, 2, 5 to 48.\n1b; Dispense 3 uL of [4/3x] 2 U/mL UDG into column 3.\n1c; Dispense 3 uL of [4/3x] 1 uM AID into column 4.\n2a; Compound (7-points [uM] (0.64; 3.2; 16; 80; 400; 2,000; 10,000; 20,000) double pin-transferred (Dip Factor = 2) using the Kalypsys (Wako USA) pintool equipped with a 1536 pinhead for a final concentration range of 7.32 nM - 114 uM.\n2b; 10 mM Aurintricarboxylic Acid (Sigma A1895) (ATA, 8-point, n = 2, 1:2.5 dilution in column 2) double pin-transferred (Dip Factor = 2) using the Kalypsys (Wako USA) pintool equipped with a 1536 pinhead for a [final] range of 186 nM - 114 uM.\n3; Room temperature incubation.\n4; Dispense 1 uL of substrate mixture from the Kohli lab [4x] […] DJC20 and [4x] 250 nM DJC23 into columns 1 to 48 .\n5; Room temperature incubation.\n6; Dispense 4 uL of substrate mixture [2x] 250 mM NaOH into columns 1 to 48.\n7; Centrifugation step to remove bubbles.\n8; Room temperature incubation\n9a; Fluorescence signal (column label AID) was read using the EnVision plate reader. […]"}
{"smiles": "COc1cccc(N2CC(NC(=O)c3ccco3)CC2=O)c1", "note": "(stereo unspecified)", "Potency": "inactive"}
{"smiles": "O=C(O)CNS(=O)(=O)c1c(F)cccc1F", "activity change, negative = inhibition": "inactive: -8.45%"}
{"smiles": "NNc1cccc2ncccc12", "Potency": "inconclusive: 79.4 µM [inhibitor, single point]"}
{"smiles": "Cc1nnc(N2CCC(C(=O)NCCc3ccccc3Cl)CC2)c2nn(-c3ccccc3)c(C)c12", "Potency": "inconclusive: 39.8 µM [inhibitor, partial curve, poor fit]"}
{"smiles": "Cc1cccc(N2CCN(C(=O)Nc3cn(CC(C)C)c(=O)c4ccccc34)CC2)c1C", "Potency": "inconclusive: 79.4 µM [inhibitor, partial curve]"}
{"smiles": "CCOc1ccccc1N(CC(=O)NCCSc1ccccc1)S(=O)(=O)c1ccccc1", "Potency": "inconclusive: 56.2 µM [inhibitor, partial curve, poor fit]"}
{"smiles": "CC(C)c1ccc(CN(Cc2ccco2)c2cnc(S(C)(=O)=O)nc2C(=O)Nc2ccc(F)cc2)cc1", "Potency": "inconclusive: 17.8 µM [inhibitor, full curve, poor fit]"}
{"smiles": "CCCCCCOc1ccc(C2C(=O)N(C3CCCCC3)CC(=O)N2CCC)cc1", "note": "(stereo unspecified)", "Potency": "inconclusive: 28.2 µM [inhibitor, full curve, poor fit]"}
{"smiles": "Cc1cccc(N2CCN(C(=O)c3cn(CC(C)C)c(=O)c4c3c3ccccc3n4C)CC2)c1C", "Potency": "inconclusive: 39.8 µM [inhibitor, full curve, poor fit]"}
{"smiles": "CCCCN(C)CCCNC(=O)c1cc(-c2ccc(Br)s2)nc2ccccc12", "Potency": "inconclusive: 25.1 µM [inhibitor, full curve, poor fit]"}
{"smiles": "Cc1ccc(C)c(Cn2c(-c3cccs3)nc3ccccc32)c1", "Potency": "inconclusive: 39.8 µM [inhibitor, full curve]"}
{"smiles": "COC(=O)c1ccc(C(=O)N2CCN(C(c3ccc(F)cc3)c3ccc(F)cc3)CC2)s1", "activity change, negative = inhibition": "inactive: -10.7%"}
{"smiles": "CC(C)c1ccc(S(=O)(=O)c2nnn3c2nc(N2CCCCC2)c2sccc23)cc1", "Potency": "inconclusive: 8.91 µM [inhibitor, full curve, poor fit]"}
{"smiles": "Fc1ccccc1-c1nnc2sc(-c3ccc4ccccc4n3)nn12", "Potency": "inconclusive: 50.1 µM [inhibitor, partial curve, poor fit]"}
{"smiles": "Cc1cc(I)ccc1NC(=O)C1CC2CCC1C2", "note": "(stereo unspecified)", "activity change, negative = inhibition": "inactive: -19.2%"}
{"smiles": "Cc1ccc(-c2nc3sc(CCNC(=O)c4ccc(C)c(C)c4)c(C)n3n2)cc1", "Potency": "inconclusive: 89.1 µM [inhibitor, partial curve, poor fit]"}
{"smiles": "CCOCCCNc1ncnc2c1cnn2-c1ccc(C)c(C)c1", "activity change, negative = inhibition": "inactive: -14.2%"}
{"smiles": "Cc1ccc(OCCn2c(CN3CCCCC3)nc3ccccc32)cc1", "Potency": "inconclusive: 35.5 µM [inhibitor, partial curve, poor fit]"}
{"smiles": "CC(=O)N1CCc2c(sc3c2c(=O)n(CCc2ccccc2)c(=O)n3Cc2ccc(Cl)cc2)C1", "Potency": "inconclusive: 44.7 µM [inhibitor, full curve, poor fit]"}
{"smiles": "CCCCN(CCCC)CCNC(=O)c1cn(CC)c2ccc(S(=O)(=O)N(C)C3CCCCC3)cc2c1=O", "Potency": "inconclusive: 31.6 µM [inhibitor, partial curve, poor fit]"}
{"smiles": "COc1ccc(Cl)cc1NS(=O)(=O)c1ccc2c(c1)NC(=O)CC(=O)N2", "activity change, negative = inhibition": "inactive: -5.85%"}
{"smiles": "CCCCc1ccc(NC(=O)c2ccc(=O)n(Cc3cccc(C)c3)c2)cc1", "Potency": "inconclusive: 20 µM [inhibitor, partial curve, poor fit]"}
{"smiles": "Cc1ccc(NC(=O)CSC2CCCC2)c(Br)c1", "activity change, negative = inhibition": "inactive: -8.71%"}
{"smiles": "Cc1ccc(-c2nnc(SCc3cccc(C#N)c3)o2)cc1", "Potency": "inconclusive: 2.82 µM [inhibitor, full curve, poor fit]"}
{"smiles": "CC(C)(C)c1ccc(-c2nc(SCCCOc3ccccc3)n3[nH]c(=O)cc3n2)cc1", "Potency": "active: 79.4 µM"}
{"smiles": "Cn1nnc2c(N3CCN(c4ccccc4Cl)CC3)ncnc21", "Potency": "inconclusive: 50.1 µM [inhibitor, partial curve, poor fit]"}
{"smiles": "O=C(O)CCCC(=O)Nc1ccc(C(=O)N2CCCCCC2)cc1", "activity change, negative = inhibition": "inactive: -3.89%"}
{"smiles": "Cc1ccccc1-n1c(SCc2ccc(Cl)cc2)nc2[nH]ncc2c1=O", "Potency": "inconclusive: 56.2 µM [inhibitor, partial curve, poor fit]"}
{"smiles": "Cc1ccccc1C(=O)c1cccn1CC(=O)NCc1ccccc1", "Potency": "inconclusive: 10 µM [inhibitor, partial curve, poor fit]"}
{"smiles": "COC(=O)c1ccccc1NC(=O)N1CC(C)Oc2ccc(C)cc21", "note": "(stereo unspecified)", "activity change, negative = inhibition": "inactive: -3.57%"}
{"smiles": "Cc1ccc(NC(=O)CN(C)S(=O)(=O)c2ccc3c(c2)n(C)c(=O)c(=O)n3C)cc1C", "Potency": "inconclusive: 5.01 µM [inhibitor, full curve, poor fit]"}
{"smiles": "CCN(CC)c1cc(C)c2cc(NC(=O)c3cccc(OC)c3)ccc2n1", "Potency": "active: 79.4 µM"}
{"smiles": "Cc1cccc(OC(C)C(=O)Nc2ncn[nH]2)c1", "note": "(stereo unspecified)", "Potency": "inconclusive: 100 µM [inhibitor, single point]"}
{"smiles": "CCc1ccc(NC(=O)c2ccc3c(O)c(S(=O)(=O)c4ccc(Cl)cc4)c(=O)[nH]c3c2)cc1", "Potency": "inconclusive: 89.1 µM [inhibitor, single point]"}
{"smiles": "O=C(/C=C/c1ccc(O)cc1)c1cccc(Br)c1", "activity change, negative = inhibition": "inactive: -10.9%"}
{"smiles": "CCOc1ccc(CNCc2c(C(=O)O)n(Cc3ccccc3F)c3cc(OC)ccc23)cc1", "Potency": "inconclusive: 79.4 µM [inhibitor, partial curve, poor fit]"}
{"smiles": "Oc1ccc(C(c2c[nH]c3ccccc23)c2c[nH]c3ccccc23)cc1", "activity change, negative = inhibition": "inactive: 16.9%"}
{"smiles": "CCOC(=O)c1c(NC(=O)/C=C/c2ccc(OCC)cc2)sc(C)c1C", "Potency": "inconclusive: 14.1 µM [inhibitor, partial curve, poor fit]"}
{"smiles": "Cc1c(C(=O)OCC(=O)NCC2CCCO2)sc2cccc(F)c12", "note": "(stereo unspecified)", "activity change, negative = inhibition": "inactive: -1.12%"}
{"smiles": "CC1CCCN(CCCNC(=O)c2ccc3c(c2)N(Cc2ccccc2F)C(=O)c2ccccc2S3(=O)=O)C1", "note": "(stereo unspecified)", "Potency": "inconclusive: 28.2 µM [inhibitor, full curve, poor fit]"}
{"smiles": "Cc1ccc(/C=C/c2onc(C)c2S(=O)(=O)N2CCC(C(=O)Nc3ccc(C)c(N(C)C)c3)CC2)cc1", "Potency": "inconclusive: 2.82 µM [inhibitor, full curve, poor fit]"}
